In PubChem BioAssay AID624173 (National Center for Advancing Translational Sciences (NCATS), 2012):
In all, about 410,000 compounds went through this assay and about 490 (0.12%) were called active. This list was built around the results that the source calls inconclusive (neither active nor inactive); the mix of calls is not that of the screen. The call rests on the fitted dose curve; in most records, active means well fitted inhibition curve with a large enough effect; inconclusive means small, poorly fitted or top-dose-only effect; inactive means flat fitted curve, though single readings scatter. Potencies of inconclusive entries are doubtful fits and often do not repeat.

molecular target: pyruvate kinase (Trypanosoma brucei) (UniProt Q57TT1); assay: qHTS of Trypanosoma Brucei Inhibitors; conditions: TbPYK enzyme, Kinase-Glo Plus ATP luminescence, 45 min; series mostly up to 76.8 µM; further: nearly all actives have a fitted effect of over 50% in size
Description: Members of the Trypanosomatidae family of parasitic protozoans cause a spectrum of diseases throughout the tropical and subtropical world. Sleeping sickness, caused by two subspecies of Trypanosoma brucei, is endemic to areas of sub-Saharan Africa, while Chagas' disease, a manifestation of Trypanosoma cruzi infection, is prevalent throughout Central and South America. In addition, many species of Leishmania are responsible for a range of cutaneous and visceral diseases, causing ulcers, destructive lesions and kalaazar, a lethal infection of the viscera. These diseases cause severe public health and economic burdens on populations that are often already caught in a tragic cycle of poverty, poor nutrition and disease. Collectively, parasites of the trypanosomatid family infect 30 million people worldwide (~500 million live in endemic areas), and account for ~130K deaths annually. Existing treatments have developed little in the past 50 years, and suffer from toxicity, poor efficacy and resistance; the goal of this project is to develop lead drugs that will be suitable for entry into pre-clinical trials.
Glycolysis in axenically cultured T. cruzi, representing the intracellular pathogenic stage, is also essential for these parasites. {Engel, 1987} This project aims to discover and optimize selective inhibitors of the glycolytic enzyme pyruvate kinase (PYK) from Trypanosoma brucei, the parasite that causes sleeping sickness. […] Trypanosomatid PYKs show significant differences from their human counterparts including only 47-50% sequence identity and different allosteric and activation properties.{Callens, 1992} To this end, a qHTS was done against the MLSMR to discover inhibitors.
NIH Molecular Libraries Probe Production Network [MLPCN]
NIH Chemical Genomics Center [NCGC]
PI Name: Malcolm Walkinshaw, University of Edinburgh
2 uL of TbPYK/substrate buffer (columns 1-3, 5-48) are dispensed into Greiner white solid bottom 1536-well assay plates; column 4 receives only TEA buffer as 0x TbPYK controls. Compounds are then transferred via Kalypsys pin tool equipped with 1536-pin array (10 nL slotted pins, V&P Scientific, San Diego, CA). Following addition of compound, 2 uL of ADP (130 uM final concentration, all columns) is added to initiate the reaction. The plates are then incubated at room temperature for 45 minutes. Kinase-Glo Plus reagent is added (3 uL) and plates incubated for 10 minutes, before being transferred to a ViewLux high-throughput CCD imager (PerkinElmer) wherein single end-point measurements of luminescence are acquired using a clear filter. All reagents are diluted in an assay buffer consisting of 50 mM TEA (pH 7.2), 100 mM KCl, 10 mM MgCl2, 0.05% BSA and 0.01% Tween-20.
All screening operations will be performed on a fully integrated robotic system (Kalypsys, San Diego, CA) containing one RX-130 and two RX-90 anthropomorphic robotic arms (Staeubli, Duncan, SC). Library plates will be screened starting from the lowest and proceeding to the highest concentration. Vehicle-only plates, with DMSO being pin-transferred to columns 5-48, will be inserted uniformly at the beginning and the end of each library in order to monitor and record any shifts in the background, which can be affected by reagent dispensers or loss in enzyme activity over time. Screening data will be corrected, normalized, and concentration-effect relationships will be derived by using publicly-available curve fitting algorithms developed in-house (http://ncgc.nih.gov/pub/openhts).
Potency means the concentration at half of the fitted maximal effect; tags describe the fitted curve by direction and shape.

SMILES	Potency
O=C(c1ccccc1)c1cnc(Nc2ccc(Cl)c(Cl)c2)s1	inactive
O=C(O)CCCCCn1c(SCC(=O)c2ccc(O)c(O)c2)nc2ccsc2c1=O	inactive
O=C(NC1=C(Nc2ccc(Cl)cc2)C(=O)c2ccccc2C1=O)c1ccccc1	inconclusive: 35.5 µM [inhibitor, single point]
Fc1ccccc1OCCn1c(=S)[nH]c2ccccc21	inactive
CCOC(=O)C1=C(CSc2nc(CC)c(C)cc2C#N)OC(N)=C(C#N)C1c1ccc(OC)cc1 (stereo not drawn)	inconclusive: 28.2 µM [inhibitor, single point]
S=c1[nH]nc(CCCc2n[nH]c(=S)o2)o1	inconclusive: 11.2 µM [inhibitor, partial curve, poor fit]
Cc1ccc(NC(=S)N(CCN(C)C)Cc2cccs2)c(C)c1	inconclusive: 12.6 µM [inhibitor, partial curve]
COc1ccc(CC(=O)NCc2n[nH]c(=S)n2-c2ccccc2)cc1	inconclusive: 20 µM [inhibitor, partial curve]
Cc1ccc(-n2c(CCC(=O)O)ccc2-c2cccs2)cc1	inactive
Oc1ccc(N2CCN(Cc3c(-c4ccccc4)nc4ccccn34)CC2)cc1	inconclusive: 50.1 µM [inhibitor, single point]
Cc1ccc(-c2nc(C)c(C(=O)O)s2)cc1	inactive
O=C(CSc1ccc(-c2ccco2)nn1)Nc1cccc(F)c1	inconclusive: 35.5 µM [inhibitor, partial curve, poor fit]
CC(=O)Nc1ccc(C2=NNC(=Nc3ccc(S(=O)(=O)N4CCOCC4)cc3)SC2)cc1	inconclusive: 7.08 µM [inhibitor, partial curve, poor fit]
COc1ccc(C(C[N+](=O)[O-])n2nc(C)cc2C)cc1 (stereo not drawn)	inconclusive: 28.2 µM [inhibitor, partial curve, poor fit]
COc1cccc(=O)c2c(C)n(-c3cc(C)cc(C)c3)c(C)c12	inactive
CSc1nsc(SCC(=O)Nc2ccc(Br)cn2)n1	inconclusive: 28.2 µM [inhibitor, single point]
Oc1ccc(NCc2cccc(OCc3ccccc3)c2)cc1	inconclusive: 3.55 µM [inhibitor, full curve]
CCN(CC)C(=O)CSc1nc(N)c2c3c(sc2n1)CC(C)CC3 (stereo not drawn)	inactive
Cc1nonc1NC(=O)CSc1ccccn1	inactive
CC1(C)CC(Cc2nc(=S)[nH][nH]2)C(=O)O1 (stereo not drawn)	inactive
CCOC(=O)N1CCc2c(sc(NC(=O)c3ccc(S(=O)(=O)N4CCCC4)cc3)c2C#N)C1	inconclusive: 39.8 µM [inhibitor, single point]
COc1ccc(/C=N/N=C2/NC(=O)C(CC(=O)O)S2)cc1OCc1ccc(Cl)cc1 (stereo not drawn)	inconclusive: 39.8 µM [inhibitor, single point]

SMILES	Potency
CCn1cc(/C=C/C(=O)Nc2ccn(Cc3c(F)c(F)cc(F)c3F)n2)cn1	inconclusive: 22.4 µM [inhibitor, partial curve]
CCOC(=O)C(C)Sc1ccc2nnc(-c3ccc(F)cc3)n2n1 (stereo not drawn)	inconclusive: 50.1 µM [inhibitor, single point]
Cc1cc(Cl)cc2sc(=S)[nH]c12	inconclusive: 11.2 µM [inhibitor, partial curve, poor fit]
CCOC(=O)c1ccccc1NC(=O)C(=O)Nc1ccc2nc3n(c(=O)c2c1)CCCCC3	inconclusive: 8.91 µM [inhibitor, partial curve]
CN(C)c1ccc(NC(=O)Nc2nnc([C@H]3C[C@H](O)[C@@H](CO)O3)s2)cc1	inconclusive: 31.6 µM [inhibitor, single point]
Cc1ccc(S(=O)(=O)Oc2ccccc2C=C2C(=O)NC(=O)NC2=O)cc1	inconclusive: 22.4 µM [inhibitor, single point]
COc1ccc(S(=O)(=O)N2CCN(C(=O)c3cc(C)on3)CC2)cc1	inactive
COc1ccc(Cl)cc1Nc1sc(C(=O)c2ccccc2)c(N)c1C(=O)Nc1ccccc1	inconclusive: 10 µM [inhibitor, partial curve, poor fit]
Cc1ccc(C(=O)N2CCc3cc(CNS(=O)(=O)c4ccc(Cl)s4)ccc32)cc1	inactive
Cn1c(=O)[nH]c(=O)c2c1nc(SCCN1CCCCC1)n2CCCc1ccccc1	inconclusive: 10 µM [inhibitor, partial curve, poor fit]
CCN(CC)c1ccc(/C=N/NC(=O)c2ccoc2C)cc1	inconclusive: 35.5 µM [inhibitor, partial curve]
O=C(Nc1cccc(Cl)c1)Nc1ccccc1C(=O)NCc1ccco1	inactive
N#Cc1c(NC(=O)c2cnn3cccnc23)sc2c1CCCC2	inconclusive: 31.6 µM [inhibitor, single point]
N#C/C(N=Nc1ccccc1O)=N\Nc1ccccc1O	inconclusive: 25.1 µM [inhibitor, partial curve, poor fit]
CC(C(=O)Nc1ccccc1C(=O)N1CCOCC1)N(c1ccc(Cl)cc1)S(C)(=O)=O (stereo not drawn)	inconclusive: 35.5 µM [inhibitor, partial curve, poor fit]
Cc1cccc(-n2c(CNC(=O)Cc3ccccc3)n[nH]c2=S)c1	inconclusive: 28.2 µM [inhibitor, partial curve, poor fit]
Cn1c(=O)[nH]c(=O)c2c1[nH]c(=S)n2Cc1ccccc1	inconclusive: 1.78 µM [inhibitor, full curve, poor fit]
Cc1c(Cl)cccc1-n1cnc(=O)c2ccccc21	inactive
CCOC(=O)c1c(NC(=O)c2cccs2)sc(CC)c1-c1cccs1	inconclusive: 31.6 µM [inhibitor, partial curve, poor fit]
COc1ccc(C(=O)CSc2c(C(C)C)cnc3c2c(=O)n(C)c(=O)n3C)cc1	inconclusive: 50.1 µM [inhibitor, single point]
CC(NC(=O)c1sc2cc([N+](=O)[O-])ccc2c1Cl)C(C)(C)C (stereo not drawn)	inconclusive: 17.8 µM [inhibitor, partial curve]
